Assay results taken from PubChem BioAssay AID686979 (National Center for Advancing Translational Sciences (NCATS), 2013).
Among all 420,000 compounds or so, about 50,000 (12%) were called active. The shares of active, inactive and inconclusive entries below differ from those in the screen. Calls follow the shape of the dose curve; as a rule, active = well fitted inhibition curve with a large enough effect; inconclusive = small, poorly fitted or top-dose-only effect; inactive = flat fitted curve, though single readings scatter. Potencies of inconclusive entries are left out as doubtful fits. Where a SMILES comes first, the peptide text is derived from it. The star is where a group is joined. Boc = CC(C)(C)OC(=O)*
% is scaled to controls: 0 for no effect and ±100 for the full control effect; potency is read from the fitted curve at half-maximal effect; tags tell the direction and shape of the fitted curve.

Test: qHTS for Inhibitors of human tyrosyl-DNA phosphodiesterase 1 (TDP1): qHTS in cells in presence of CPT; also: nearly all actives have a fitted effect of over 55% in size
Details: chicken DT40 Tdp1-/-;hTDP1 cells + 20 nM CPT, ATP luminescence, 48 h; activity change, negative = growth inhibition: at 46.2 µM (top of the series) unless noted
In short: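 Cell growth measured by CellTiter-Glo luminescence after a minimum 48 h, 37 C compound exposure with 20 nM CPT in Tdp1-knockout DT40 cells stably expressing hTDP1, seeded 400/well; qHTS titration format.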
In the case of `COC(=O)c1ccc2c(c1)sc(=NC(=O)CCS(=O)(=O)c1ccccc1)n2C`, the Potency is reported as inconclusive [inhibitor, single point].
With `COCCN(C(=O)COC(=O)CCCc1c[nH]c2ccccc12)c1c(N)n(Cc2ccccc2)c(=O)[nH]c1=O` the “activity change, negative = growth inhibition” value was inactive: -4.75%.
In the case of `CCOC(=O)c1c(C)[nH]c(N=Nc2cccc(C)c2)c1C`, the Potency is reported as inconclusive [inhibitor, partial curve].
With `CCc1ccc(CN2CCC(n3nccc3NC(=O)C3CCCC3)CC2)cc1` the Potency was inconclusive [inhibitor, single point].
With `C=CC[N+](C)(C)CC(=O)OCc1ccccc1` the “activity change, negative = growth inhibition” value was inactive: 13%.
With `CCN1CCN(S(=O)(=O)c2ccc(S(=O)(=O)N(CC)Cc3ccccc3)cc2)CC1` the Potency was inconclusive [inhibitor, single point].
For `Nc1ccc(C(=O)Nc2ccc(NC(=O)c3ccco3)c(O)c2)cc1`, the Potency was inconclusive [inhibitor, single point].
With `CC(C)CCn1c(SCc2c(F)cccc2Cl)nc2ccsc2c1=O` the “activity change, negative = growth inhibition” value was inactive: -24.2%.
In the case of `O=C(Nc1ccc(N2CCN(C(=O)c3ccco3)CC2)c(Cl)c1)c1cccs1`, the Potency is reported as active: 20.6 µM.
In the case of `Cc1ccnc(NC(c2ccccn2)c2c(C)[nH]c3ccccc23)c1` (stereo not given), the Potency is reported as inconclusive [inhibitor, single point].
For `CCOC(=O)c1cnc(-n2nc(C)cc2C)nc1NCc1ccc2c(c1)OCO2`, the Potency was inconclusive [inhibitor, single point].
With `Cn1nc(C(=O)OCC(=O)Nc2ccc(Cl)cc2Cl)c2ccccc2c1=O` the Potency was inconclusive [inhibitor, single point].
For `C[C@H](CO)N1C[C@H](C)[C@H](CN(C)S(=O)(=O)c2cccs2)Oc2ccc(NC(=O)Nc3ccc4c(c3)OCO4)cc2CC1=O`, the Potency was inconclusive [inhibitor, single point].
With `CN(CC(=O)Nc1cccc(F)c1)C(=O)c1ccc(N2CCOCC2)c([N+](=O)[O-])c1` the Potency was inconclusive [inhibitor, single point].
With `Cc1ccc(S(=O)(=O)N2CCOCC2)cc1C(=O)N1CCN(Cc2ccccc2)CC1` the “activity change, negative = growth inhibition” value was inactive: -12.5%.
In the case of `CCN(CC)CCn1c(N)c(S(=O)(=O)c2ccccc2)c2nc3ccccc3nc21`, the Potency is reported as inconclusive [inhibitor, single point].
In the case of `O=C(/C(Cl)=C/Nc1ccc(Br)cn1)C(F)(F)F`, the “activity change, negative = growth inhibition” value is reported as inactive: -9.37%.
In the case of `O=C(c1ccccc1)c1ccc[nH]1`, the “activity change, negative = growth inhibition” value is reported as inactive: -6.42%.
For `Fc1ccc(Nc2nc(NCc3ccccc3)nc3ccsc23)cc1`, the Potency was active: 8.2 µM.
In the case of `CC(C)(C)c1ccc(S(=O)(=O)Nc2ccc(Cc3ccncc3)cc2)cc1`, the Potency is reported as inconclusive [inhibitor, single point].
In the case of `CSC(=S)N/N=C/c1ccc(N(C)C)cc1`, the Potency is reported as active: 4.61 µM.
With `CCCCOc1ccc(C(=O)OC2CC(C)N(C)CC2C)cc1` (stereo not given) the Potency was inconclusive [inhibitor, single point].
For `NC(=O)C1=C[C@H](c2ccc(C(F)(F)F)cc2)C[C@H](OCc2ccc(CO)cc2)O1`, the “activity change, negative = growth inhibition” value was inactive: -24.8%.
In the case of `Nc1nonc1-c1nc2ccccc2n1CC(=O)Nc1ccccc1C(=O)O`, the Potency is reported as inconclusive [inhibitor, single point].
With `Cc1cnc(-n2ncc(C(=O)NCc3ccncc3)c2-c2cccs2)nc1-c1ccc(F)cc1` the “activity change, negative = growth inhibition” value was inactive: -17.2%.
In the case of `CN1CCc2c(n(CC(O)CN3C(=O)c4ccccc4S3(=O)=O)c3ccccc23)C1=O` (stereo not given), the “activity change, negative = growth inhibition” value is reported as inactive: 5.05%.
For `CCCOc1ccc(C(=O)CCNC(Cc2c[nH]c3ccccc23)C(=O)O)cc1` (stereo not given), the Potency was active: 4.61 µM.
For `COc1cccc(/C=N\NC(=O)C2=NNC(=O)C2C)c1O` (stereo not given), the Potency was inconclusive [inhibitor, partial curve].
With `CCCCCn1c(CN2CCN(c3cccc(Cl)c3)CC2)nc2c1c(=O)n(C)c(=O)n2C` the Potency was active: 16.4 µM.
In the case of `CN(C(=O)c1ccc(NC(=O)Cc2ccc(NC(=O)C3CCCN(C(=O)C4CCCCC4)C3)cc2)cc1)C1CCCC1` (stereo not given), the Potency is reported as inconclusive [inhibitor, partial curve, poor fit].
For `Cc1sc2nc(SCC(=O)C(C)(C)C)n(Cc3ccco3)c(=O)c2c1C`, the Potency was active: 13 µM.
With `CCOc1ccc(CCNC(=O)CSCc2nc(-c3cccc(C)c3)oc2C)cc1OCC` the Potency was inconclusive [inhibitor, single point].
With `CCOC(=O)C1CCN(CC(=O)Nc2c(C(=O)OC)[nH]c3ccc(Cl)cc23)CC1` the Potency was active: 23.1 µM.
For `Cc1ccc(S(=O)(=O)N(C)CC(=O)Nc2cccnc2)cc1`, the “activity change, negative = growth inhibition” value was inactive: 12.1%.
In the case of `CCCCn1c(N)c(N(CC)C(=O)CN2C(=O)NC(C)(c3ccccc3)C2=O)c(=O)[nH]c1=O` (stereo not given), the “activity change, negative = growth inhibition” value is reported as inactive: 5.09%.
In the case of `O=C(O)c1cc(=O)[nH]c2ccccc12`, the “activity change, negative = growth inhibition” value is reported as inactive: 0.662%.
With `O=C(c1ccncc1)N1CCC[C@@]2(CCN(c3ccccc3)C2)C1` the Potency was inconclusive [inhibitor, single point].
In the case of `CC(=O)c1ccc(N2Cc3ccccc3C2=NC(=O)c2cccs2)cc1`, the Potency is reported as inconclusive [inhibitor, single point].
With `Cc1c(C(=O)NCc2ccc3c(c2)OCCO3)sc(=O)n1Cc1cccc(C(F)(F)F)c1` the Potency was inconclusive [inhibitor, single point].
With `CC1CCCC(C)N1C(=O)COC(=O)C(Cc1ccccc1)NC(=O)c1cccs1` (stereo not given) the Potency was inconclusive [inhibitor, single point].
In the case of `C=C(C)c1cccc(C(C)(C)NC(=O)N2CCC(C)CC2)c1`, the Potency is reported as active: 18.4 µM.
For `N=c1occ(C(=O)c2cc(F)ccc2O)cc1C(=O)NC1CCCCC1`, the Potency was inconclusive [inhibitor, partial curve].
For `OC(CN1CCN(c2cccc(C(F)(F)F)c2)CC1)c1c[nH]c2ccccc12` (stereo not given), the Potency was inconclusive [inhibitor, partial curve].
In the case of `CCCCNc1nc(N(C)c2ccccc2)nc(-n2ccnc2)n1`, the Potency is reported as inconclusive [inhibitor, single point].
In the case of `Cc1cc(Cl)ccc1OCCCC(=O)NNC(=O)c1ccccc1O`, the Potency is reported as inconclusive [inhibitor, single point].
In the case of `CNc1cccc(-c2c(OC)cccc2OC)n1`, the Potency is reported as inconclusive [inhibitor, single point].
With `O=c1c2[nH]c3ccc(Cl)cc3c2ncn1CCN1CCCCC1` the Potency was inconclusive [inhibitor, single point].
In the case of `CCOc1ccc2nc(NC(=O)c3nc(SC(C)C)ncc3Cl)sc2c1`, the Potency is reported as active: 9.2 µM.
In the case of `CCc1cccc2c(-c3ccccc3)nc(SCC(=O)Nc3ccc(OC)cc3)nc12`, the “activity change, negative = growth inhibition” value is reported as inactive: -10.6%.
With `O=C(NCCc1c[nH]c2ccccc12)c1cc(S(=O)(=O)N2CCCCC2)ccc1N1CCOCC1` the Potency was inconclusive [inhibitor, single point].
In the case of `COc1ccc(C2C(C(=O)OC(C)C)=C(C)N=c3s/c(=C\c4cccs4)c(=O)n32)cc1` (stereo not given), the Potency is reported as inconclusive [inhibitor, single point].
In the case of `CS(=O)(=O)N1CCC2(CCCN(Cc3ccccc3)C2)CC1`, the “activity change, negative = growth inhibition” value is reported as inactive: 6.65%.
With `COc1ccc(CNC(=O)Oc2ccccc2)cc1Cl` the Potency was inconclusive [inhibitor, partial curve].
With `COc1cccc(-c2csc(N3CCN(C(=S)Nc4ccccc4Cl)CC3)n2)c1` the “activity change, negative = growth inhibition” value was inactive: -9.09%.
For `CC(C)[C@H](NC(=O)CNC(=O)OC(C)(C)C)C(=O)N[C@H](C=O)C(C)C` (Boc-Gly-Val-Val-aldehyde), the Potency was inconclusive [inhibitor, single point].
In the case of `CC1=NN(c2ccccc2)C(=O)C1C=Nc1ccc(N(C)C)cc1` (stereo not given), the “activity change, negative = growth inhibition” value is reported as inactive: -9.34%.
With `CCOC(=O)c1c(NC(=O)C(C)NCc2ccco2)sc2c1CCC(C)C2` (stereo not given) the Potency was inconclusive [inhibitor, single point].
With `CC(=O)Nc1ccc(S(=O)(=O)N2CCN(C)CC2)cc1` the Potency was inconclusive [inhibitor, partial curve].
For `Fc1cc(F)cc(-c2c(-c3ccccc3)ncc3ccc(F)cc23)c1`, the Potency was active: 13 µM.
For `CSc1nnc(-c2ccc(C(F)(F)F)cn2)o1`, the “activity change, negative = growth inhibition” value was inactive: 20.6%.
In the case of `CCOC(=O)N1CCC(NC(=O)CS(=O)(=O)Cc2nc(-c3ccc(OC)cc3)oc2C)CC1`, the Potency is reported as inconclusive [inhibitor, single point].
With `NS(=O)(=O)c1ccc(NC(=O)/C=C/c2cn(-c3ccccc3)nc2-c2cccc(Cl)c2)cc1` the Potency was inconclusive [inhibitor, single point].
With `Cc1cc(C(=O)N2CCC2(C)C(=O)Nc2cc(C(C)(C)C)nn2C)nn1C` (stereo not given) the “activity change, negative = growth inhibition” value was inactive: -0.1%.
In the case of `COc1ccc(-n2c(Cc3cc(=O)[nH]c(=O)[nH]3)nnc2SCc2ccccc2)cc1`, the “activity change, negative = growth inhibition” value is reported as inactive: -0.883%.
In the case of `COc1cccc(CN(C)C(=O)CCNC(=O)c2ccc(Br)cc2)c1`, the “activity change, negative = growth inhibition” value is reported as inactive: -19.6%.
In the case of `CC(C)C(=O)N1CCN(c2ccc(NC(=O)c3ccc(Br)o3)cc2)CC1`, the Potency is reported as inconclusive [inhibitor, single point].
With `CN(C)S(=O)(=O)c1ccc(C(=O)N(Cc2cccnc2)c2nc3c(F)cc(F)cc3s2)cc1` the Potency was inconclusive [inhibitor, partial curve].
For `C=C(Cl)COc1ccc2c(C)cc(=O)oc2c1`, the Potency was inconclusive [inhibitor, single point].
In the case of `O=C(c1cccc2ccccc12)N1CCN(S(=O)(=O)c2ccccc2)CC1`, the Potency is reported as inconclusive [inhibitor, partial curve, poor fit].
With `CCOC(=O)C1(Cc2ccccc2C(F)(F)F)CCN(C2CCSC2)CC1` (stereo not given) the Potency was inconclusive [inhibitor, single point].
